These results are taken from article PMC4336329 (PLoS ONE, 2015).

The campaign covered roughly 310,000 compounds. About 2,200 (0.71%) showed an effect of 50% or more. The effect is printed as a negative number. The list shows a part of the results.

In the test the target is human ether-à-go-go-related gene (hERG) potassium channel (human, UniProt Q12809). Kind of test: primary screen, population patch clamp on CHO cells stably expressing hERG.
Sequence of human ether-à-go-go-related gene (hERG) potassium channel (Q12809 whole entry, looked up): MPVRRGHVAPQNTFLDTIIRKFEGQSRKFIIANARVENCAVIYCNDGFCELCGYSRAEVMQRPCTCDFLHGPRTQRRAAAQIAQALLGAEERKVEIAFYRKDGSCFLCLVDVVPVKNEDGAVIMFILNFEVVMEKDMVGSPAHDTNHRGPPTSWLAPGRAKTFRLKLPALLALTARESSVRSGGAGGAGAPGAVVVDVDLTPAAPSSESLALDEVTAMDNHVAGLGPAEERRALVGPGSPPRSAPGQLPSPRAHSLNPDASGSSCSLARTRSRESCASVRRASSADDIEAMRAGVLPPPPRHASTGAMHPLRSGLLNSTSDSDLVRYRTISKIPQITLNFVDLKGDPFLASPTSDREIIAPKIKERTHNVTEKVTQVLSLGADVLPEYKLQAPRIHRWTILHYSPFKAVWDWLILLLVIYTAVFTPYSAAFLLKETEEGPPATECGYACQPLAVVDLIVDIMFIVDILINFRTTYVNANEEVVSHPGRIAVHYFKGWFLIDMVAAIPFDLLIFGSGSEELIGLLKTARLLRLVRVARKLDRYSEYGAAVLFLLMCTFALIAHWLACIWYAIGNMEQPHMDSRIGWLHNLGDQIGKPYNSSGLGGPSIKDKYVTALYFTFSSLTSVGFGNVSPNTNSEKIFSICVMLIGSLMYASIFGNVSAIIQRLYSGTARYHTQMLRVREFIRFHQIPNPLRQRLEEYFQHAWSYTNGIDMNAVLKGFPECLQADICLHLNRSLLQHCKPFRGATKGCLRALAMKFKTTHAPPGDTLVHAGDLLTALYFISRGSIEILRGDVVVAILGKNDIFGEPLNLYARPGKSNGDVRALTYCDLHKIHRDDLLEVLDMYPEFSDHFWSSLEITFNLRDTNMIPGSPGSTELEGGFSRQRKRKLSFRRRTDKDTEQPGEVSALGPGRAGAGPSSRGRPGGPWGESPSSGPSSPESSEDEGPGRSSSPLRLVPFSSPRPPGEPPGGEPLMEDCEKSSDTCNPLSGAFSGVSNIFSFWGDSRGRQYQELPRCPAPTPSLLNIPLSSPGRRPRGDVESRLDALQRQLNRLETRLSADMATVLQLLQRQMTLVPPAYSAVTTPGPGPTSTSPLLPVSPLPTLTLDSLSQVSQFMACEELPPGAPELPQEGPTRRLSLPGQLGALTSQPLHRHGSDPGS
Consider `Cc1cccc(C)c1NC(=O)COC(=O)C1Cc2ccccc2CN1C(=O)c1ccccc1` (stereo not drawn), for which the “hERG current change (%, negative = inhibition) at 1uM” value was found to be 8.9%.
In the case of `COc1ccc(/C(C)=N/OC/C(O)=C(\C#N)c2nc3ccccc3[nH]2)c(OC)c1`, the “hERG current change (%, negative = inhibition) at 1uM” value was -5.85%.
The same measure for `CCCN(Cc1nnc(-c2ccccc2Cl)o1)C(=O)c1cc(S(=O)(=O)N2CCOCC2)ccc1F`: -8.05%; for `O=C(c1cc2ccccc2oc1=O)N1CCN(CCc2ccccc2)CC1`: -60.4%; for `CCN(CC(=O)Nc1cc(C)c(Cl)cc1OC)CC(=O)NC1CCS(=O)(=O)C1` (stereo not drawn): 15.9%.
The result for `Cc1cc(C)n(-c2nc3ccccc3n3nnnc23)n1` reads 11.1%; that for `CSc1nc(C)cc(OCC#N)n1`, 10.1%; that for `COc1ccc(N2CCN(C(=O)c3sc4ncn(CC(=O)N5CCCCC5)c(=O)c4c3C)CC2)cc1`, 8.97%.
The result for `COC(=O)C1CN(S(=O)(=O)c2cc(OC)ccc2OC)CCS1` (stereo not drawn) reads 13.4%.
As for `CCOC(=O)CCc1c(C)nc2c(c(C)nn2-c2ccc(C)cc2)c1C`, the “hERG current change (%, negative = inhibition) at 1uM” value is given as 17.4%.
The result for `C=CCn1c(SCC(=O)c2c(C)[nH]c3ccccc23)nnc1-c1ccncc1` reads 20.1%.
With `O=C1c2ccccc2C(=O)N1CCCCN(C(=O)c1ccc([N+](=O)[O-])cc1)c1ccc(Cl)cc1`, the “hERG current change (%, negative = inhibition) at 1uM” value amounted to 9.1%.
As to `CCOC(=O)COc1ccccc1/C=C\[N+](=O)[O-]`, the “hERG current change (%, negative = inhibition) at 1uM” value is 9.17%.
The same measure for `COC(=O)c1ccc(NC(=O)Cc2ccc(F)cc2)cc1`: 20.2%; for `CCCn1cc(S(=O)(=O)c2ccccc2)c(=O)c2cc(F)c(N3CCN(C)CC3)cc21`: 15.5%.
The result for `O=c1[nH]c2sc3c(c2c2nncn12)CCCC3` reads 11.7%.
Consider `Cc1cc(C)nc(Sc2c(C)nn(-c3ccccc3)c2C)n1`, for which the “hERG current change (%, negative = inhibition) at 1uM” value turned out to be 3.43%.
As to `O=C(CSc1nnc(SCc2ccc(F)cc2)s1)Nc1ccc(C(=O)O)cc1`, the “hERG current change (%, negative = inhibition) at 1uM” value is 9.2%.
The result for `Oc1ccc(C[C@@H]2CNC(=S)N2CCCCC2CCCCC2)cc1` reads 15%; that for `c1ccc(-c2nc(-c3nccc4ccccc34)oc2-c2ccccc2)cc1`, 5.84%.
The same measure for `CC(C(=O)Nc1ccccc1F)N1C(=O)c2ccccc2C1=O` (stereo not drawn): 14%; for `CCCC(=O)Nc1sc(C(=O)Nc2cccc(N)c2)c(C)c1C(=O)OC`: 6.22%; for `O=C(CSc1nc2ccccc2[nH]1)NCC1CCCO1` (stereo not drawn): 10.5%.
The same measure for `O=C(Nc1ccc(F)c(Cl)c1)Nc1csc2ccccc12`: 15.6%.
For `O=C(Nc1ccc(Cl)cc1)NC1CCS(=O)(=O)C1` (stereo not drawn), the “hERG current change (%, negative = inhibition) at 1uM” value is -13.4%.
The result for `COc1cc2ccccc2cc1C(=O)Nc1ccc(N2CCN(C(=O)C(C)C)CC2)cc1` reads 15.7%; that for `CCC1(CC)NC(=O)N(CC(=O)Nc2ccc(S(=O)(=O)N3CCOCC3)cc2)C1=O`, 3.3%; that for `CCN(CC)S(=O)(=O)c1cccc(NC(=O)CC2CCCC2)c1`, 15.6%.
In the case of `Cl.OCc1cnc[nH]1`, the “hERG current change (%, negative = inhibition) at 1uM” value is recorded as 16.1%.
In the case of `COc1cccc(-c2noc(C3CCCN(C(=O)c4cccc(F)c4)C3)n2)c1` (stereo not drawn), the “hERG current change (%, negative = inhibition) at 1uM” value is given as 8.47%.
The result for `COc1ccc(NC(=S)N2CCC(N(C)CCN3CCOCC3)CC2)cc1Cl` reads 10.8%; that for `CCN1C(=O)CC(Sc2ccccc2N)C1=O` (stereo not drawn), 14.3%.
In the case of `CC(C)c1ccc(NS(=O)(=O)c2ccc3c(c2)oc(=O)n3C)cc1`, the “hERG current change (%, negative = inhibition) at 1uM” value came out at 19.7%.
For `CC(C)CN(CC(C)C)S(=O)(=O)c1cc([N+](=O)[O-])ccc1N1CCCCCC1`, the “hERG current change (%, negative = inhibition) at 1uM” value is given as 18.5%.
The result for `COc1ccc(OC)c(S(=O)(=O)NCC(=O)NC2CCCCCC2)c1` reads 16%.
Consider `Cc1nc2ccccc2nc1CN1CCC(CO)(CC2CCCCO2)CC1` (stereo not drawn), for which the “hERG current change (%, negative = inhibition) at 1uM” value is 6.85%.
The same measure for `CCCNC(=O)c1c(N)n(Cc2ccc3c(c2)OCO3)c2nc3ccccc3nc12`: 3.61%; for `CCOc1cccc(OCCOc2ccccc2[N+](=O)[O-])c1`: 6.73%.
The same measure for `COc1ccc(C(CCNCc2ccc(N(C)C)cc2)c2ccccc2OC)cc1` (stereo not drawn): -18.4%.
For `O=C(NNC(=O)c1cc(-c2ccc(Cl)cc2Cl)nc2ccccc12)Nc1ccccc1`, the “hERG current change (%, negative = inhibition) at 1uM” value is 2.96%.
As to `CC(NC(=O)CCNC(=O)N1CCn2c1nc1ccccc12)c1ccccc1` (stereo not drawn), the “hERG current change (%, negative = inhibition) at 1uM” value came to 14.7%.
As for `CC(NS(=O)(=O)c1ccc(Cl)cc1)C(=O)NCCC1=CCCCC1` (stereo not drawn), the “hERG current change (%, negative = inhibition) at 1uM” value turned out to be 9.57%.
The same measure for `CC1Cc2ccccc2N1Cc1nc2scc(-c3cccs3)c2c(=O)[nH]1` (stereo not drawn): 21.5%; for `CS(=O)(=O)N1CCC(C(=O)Nc2ccc(Br)cc2F)CC1`: 9.24%; for `O=C(CSc1ncc(-c2ccccc2)nn1)NCc1ccco1`: 0.329%.
The result for `CC(C)c1nnc(NC(=O)Cc2ccccc2[N+](=O)[O-])s1` reads 13.8%; that for `COc1ccc(NC(=O)N2CCCC2C(=O)NCc2ccc(F)cc2)cc1` (stereo not drawn), 3.81%; that for `O=C(Cc1ccccc1)Nc1ccc(Cl)cn1`, 13.3%.
The same measure for `CCOc1ccccc1C(c1c(C)n(C)n(-c2ccccc2)c1=O)c1c(C)n(C)n(-c2ccccc2)c1=O`: 11.3%; for `CCOc1cc(/C=N/NC(=O)CN2CCCCC2)ccc1OCc1ccc(Cl)cc1`: 17%; for `CS(=O)(=O)N(CC(=O)NC1CCCC1)c1ccc(Oc2ccccc2)cc1`: 7.32%.
As to `O=C(Nc1ccc(-c2nnc(-c3ccccc3)o2)cc1)c1ccc(Br)o1`, the “hERG current change (%, negative = inhibition) at 1uM” value is on record as -8.53%.
In the case of `CC1=CC(C)(C)N(S(=O)(=O)c2ccc(C)cc2)c2ccc(C)cc21`, the “hERG current change (%, negative = inhibition) at 1uM” value was 0.168%.
The same measure for `CCO[C@@H]1OC(C(=O)N2CCN(Cc3ccc4c(c3)OCO4)CC2)=C[C@H](c2ccc3c(c2)OCO3)[C@H]1CCCO`: 2.02%; for `CC1CCCN(S(=O)(=O)c2cc3c4c(c2)C(C)C(=O)N4CCC3)C1` (stereo not drawn): 12%; for `Cc1ccc(NS(=O)(=O)c2ccc(CCC(=O)NCCO)cc2)cc1`: 1.63%.
The same measure for `O=c1cc(O)c2sc3nc(-c4cccnc4)cc(C(F)(F)F)c3c2[nH]1`: 10.6%.
The result for `CC1CCC(N2CCN(c3ccc([N+](=O)[O-])cc3)CC2)CC1` (stereo not drawn) reads -67.8%; that for `CC(=O)Nc1ccc2nc(NC(=O)COc3ccccc3C)sc2c1`, 7.46%.
Regarding `Cl.O=S(=O)(NCCN1CCOCC1)c1ccc(Cl)s1`, the “hERG current change (%, negative = inhibition) at 1uM” value was 5.93%.
As for `O=C(CCN1CCOCC1)c1ccc(N2CCCCC2)cc1.[Br-]`, the “hERG current change (%, negative = inhibition) at 1uM” value is 10.1%.
The same measure for `CN1CCc2c(OCc3ccc(F)cc3)cccc2C1=O`: 5.61%.
As for `CC(C)(C)c1ccc(NC(=O)N2CCN(c3ccc([N+](=O)[O-])cn3)CC2)cc1`, the “hERG current change (%, negative = inhibition) at 1uM” value amounted to 10.7%.
The result for `Cc1ccc(CN(Cc2cccnc2)C(=S)Nc2cccc(Cl)c2C)cc1` reads 7.22%.
Turning to `CC1CC(C)CN(C(=O)CCC(=O)Nc2nnc(C(C)C)s2)C1` (stereo not drawn), the “hERG current change (%, negative = inhibition) at 1uM” value was 12.4%.
The same measure for `Cc1nnsc1NC(=O)OCc1ccc(C(F)(F)F)cc1`: 1.79%; for `COc1cccc(OCc2nnc(SCC(=O)NCc3ccco3)n2CCc2ccccc2)c1`: -6.59%.
With `O=C(NCCOc1ccccc1)C1CCC(=O)N(CCN2CCOCC2)C1` (stereo not drawn), the “hERG current change (%, negative = inhibition) at 1uM” value worked out at 15.7%.
The same measure for `O=C(C[n+]1ccc(/C=C/c2ccccc2)cc1)c1ccc2c(c1)OCCO2.[Br-]`: 2.08%.
The result for `Cc1c(C(=O)N2CCN(c3ncccn3)CC2)sc2nc3n(c(=O)c12)CCCC3` reads 17.6%.
Take `Cn1c(=O)[nH]c(=O)c2c1nc(CN1CCN(c3ccc(F)cc3)CC1)n2CCN1CCOCC1`: the “hERG current change (%, negative = inhibition) at 1uM” value is given as -0.139%.
The result for `CCN(CC)C(=O)c1sc(NC(=O)Cc2ccccc2)c(C#N)c1C` reads 2.35%.
The result for `O=C(Cn1nnc(-c2ccccc2)n1)Nc1cccc(S(=O)(=O)N2CCCC2)c1` reads 15.3%.
The same measure for `NC(=O)CSc1nc2c(sc(=S)n2-c2ccccc2)c(=O)[nH]1`: 14.7%; for `COc1ccc(C)cc1NC(=O)CCCN1C(=O)CN(C)C1=O`: -0.631%; for `CC1(C)CC(=O)C2=C(C1)OC(N)=C(C#N)C21C(=O)N(CN2CCOCC2)c2ccccc21` (stereo not drawn): 11.2%.
Take `CCn1c(SCC(=O)NNC(=O)c2ccc(OC)cc2)nnc1-c1cccnc1`: the “hERG current change (%, negative = inhibition) at 1uM” value was found to be 8.01%.
The same measure for `Oc1ccccc1-c1nc(N2CCCC2)c2ccccc2n1`: 2.36%.
The same measure for `CCOC(=O)c1ccc(S(=O)(=O)N2CCN(S(=O)(=O)CC)CC2)cc1`: 12.9%.
The result for `Clc1cccc(Cl)c1Cn1nnc(N2CCCC2)n1` reads 11.9%; that for `CSc1ncc(CN2CCN(C3CCCCC3)C(CCO)C2)cn1` (stereo not drawn), 10.3%.
Consider `COc1cc(NC(=O)CN2CCC(Cc3ccccc3)CC2)c(C)cc1[N+](=O)[O-]`, for which the “hERG current change (%, negative = inhibition) at 1uM” value came to 12.9%.
The same measure for `Nc1nc(CSc2n[nH]c(-c3ccccc3)n2)nc(Nc2ccccc2)n1`: 2.91%.
Take `Cc1ccc(NC(=O)c2ccc3c(c2)CCN3S(C)(=O)=O)c(C)c1`: the “hERG current change (%, negative = inhibition) at 1uM” value is listed as 0.297%.
The same measure for `COc1ccc(C2C(=O)N(C3CCCCC3)CC(=O)N2C2CCCC2)cc1` (stereo not drawn): 9.07%; for `Cc1c(NC(=O)C(C)OC(=O)c2cc(-c3cccc4ccccc34)nc3ccccc23)c(=O)n(-c2ccccc2)n1C` (stereo not drawn): 2.63%; for `Cc1cc(NC(=O)CSc2ccc3nnc(-c4cccs4)n3n2)no1`: -0.551%.
